{"source": "PubChem BioAssay AID686978", "about": "(National Center for Advancing Translational Sciences (NCATS), 2013)", "note": "Hit rate of the full screen: of about 420,000 compounds, about 64,000 (15%) were called active. The inconclusive results got no clear call from the source; some entries with a clear call stand among them for comparison. Calls follow the shape of the dose curve; as a rule, active = well fitted inhibition curve with a large enough effect; inconclusive = small, poorly fitted or top-dose-only effect; inactive = flat fitted curve, though single readings scatter. Potencies of inconclusive entries are left out as doubtful fits.", "data": [{"assay": "qHTS for Inhibitors of human tyrosyl-DNA phosphodiesterase 1 (TDP1): qHTS in cells in absence of CPT; also: nearly all actives have a fitted effect of over 55% in size; also: potency is read from the fitted curve at half-maximal effect; tags tell the direction and shape of the fitted curve; as to activity change, negative = growth inhibition: % is scaled to controls: 0 for no effect and ±100 for the full control effect", "conditions": "DT40 Tdp1-/- hTDP1 cells, no CPT, ATP luminescence, 48 h; activity change, negative = growth inhibition: at 46.2 µM (top of the series) unless noted", "procedure,_shortened": "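Chicken DT40 Tdp1-/- cells complemented with human TDP1, screened without camptothecin (DMSO vehicle only), 400 cells/well. Compounds pin-transferred, cells incubated at 37 °C for at least 48 hr. Growth read as ATP-dependent luminescence (CellTiter-Glo, 30 min at RT).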", "values": [{"compound": "CC(=O)N1N=C(c2c(-c3ccccc3)c3cc(C)ccc3[nH]c2=O)CC1c1ccco1", "note": "(configuration not stated)", "Potency": "inconclusive [inhibitor, partial curve, poor fit]"}, {"compound": "C[C@@]12C(=O)N(c3cccc(Cl)c3)C(=O)N1[C@H](c1ccc(Cl)cc1)[C@@H]1C(=O)N(C3CCCCC3)C(=O)[C@@H]12", "Potency": "inconclusive [inhibitor, single point]"}, {"compound": "C/C(N)=C(/C#N)C(=O)CSc1cc(Cl)ccc1Cl", "activity change, negative = growth inhibition": "inconclusive: -31.4% [inhibitor]"}, {"compound": "COc1cccc(Cn2c(C)c(CNC3CCCCC3)c(C(=O)O)c2C)c1", "Potency": "inactive"}, {"compound": "O=C(NCc1cccs1)C1CCCN(S(=O)(=O)c2ccc3c(c2)OCO3)C1", "note": "(configuration not stated)", "Potency": "inconclusive [inhibitor, single point]"}, {"compound": "CCCC12CN3CC(CCC)(CN(C1)C3c1ccc(OC(C)C)cc1)C2=O", "note": "(configuration not stated)", "Potency": "active: 16.4 µM"}, {"compound": "Cc1nc2ccccc2c2oc(C(=O)N3CCN(c4ccc([N+](=O)[O-])cc4)CC3)cc12", "Potency": "inconclusive [inhibitor, partial curve]"}, {"compound": "COc1ccc(NC(=O)c2cccc(Cn3cc(Br)c([N+](=O)[O-])n3)c2)c(C)c1", "Potency": "active: 18.4 µM"}, {"compound": "Clc1ccccc1CSc1nnc(C2CCNCC2)o1", "Potency": "inconclusive [inhibitor, single point]"}, {"compound": "COc1ccc(CNc2cc(C)ccn2)cc1", "Potency": "inconclusive [inhibitor, full curve]"}, {"compound": "CCOc1ccc(NC(=O)CCCOc2cc(=O)n(C)c3ccccc23)cc1", "activity change, negative = growth inhibition": "inconclusive: -31.5% [inhibitor]"}, {"compound": "Cc1ccc(C(=O)N[C@H](C(=O)Nc2sccc2C(N)=O)C(C)C)cc1", "Potency": "inconclusive [inhibitor, single point]"}, {"compound": "O=C(CCn1nnc2ccccc21)N1CCC(O)(c2cccc(F)c2)CC1", "Potency": "inconclusive [inhibitor, single point]"}, {"compound": "Cc1c(Cl)cccc1Nc1nc(N)nc(CSC(=S)N2CCOCC2)n1", "Potency": "inactive"}, {"compound": "O=C(c1cnc2c(c1)COc1ccc(Cl)cc1-2)c1ccccc1O", "Potency": "inconclusive [inhibitor, partial curve]"}, {"compound": "COc1ccc(NC(=O)NCc2ccco2)cc1OC", "Potency": "inactive"}, {"compound": "COc1ccc(SCC(=O)Nc2ccc(N3CCN(C)CC3)c(F)c2)cc1", "Potency": "inconclusive [inhibitor, partial curve]"}, {"compound": "COC(=O)C1CCN(Cc2ccc3c(c2)CN(C(=O)c2ccc(-n4cnnn4)cc2)CCO3)CC1", "Potency": "inactive"}, {"compound": "CCC(C)NC(=O)c1cn(CC)c2ccc(S(=O)(=O)N3CCCCCC3)cc2c1=O", "note": "(configuration not stated)", "Potency": "inconclusive [inhibitor, single point]"}, {"compound": "Cc1ccc(NC(=O)c2cccc3c2C(=O)N(C2CCCCC2)C3)cc1", "Potency": "active: 20.6 µM"}, {"compound": "Cc1ccc(NC2=C(N3CCCCC3)C(=O)c3ccccc3C2=O)cc1", "Potency": "active: 2.31 µM"}, {"compound": "COc1cc(=O)n2c(c1C(=O)NC(C)c1ccco1)CCN(Cc1cc(C)cc(C)c1)CC2", "note": "(configuration not stated)", "Potency": "inactive"}, {"compound": "COc1ccc(NC(=O)c2oc3ccccc3c2NC(=O)Cc2coc3ccc(C)cc23)cc1", "Potency": "inconclusive [inhibitor, single point]"}, {"compound": "CCOc1ccc(OCC)c(NC(=O)CCS(=O)(=O)c2ccc(Br)s2)c1", "Potency": "inactive"}, {"compound": "C=CCNC(=O)C1CC(c2cccc(OC)c2)=NO1", "note": "(configuration not stated)", "Potency": "inactive"}, {"compound": "COc1ccc(C(=O)N2CCC3(CCCN(c4ccccc4)C3)CC2)cc1", "Potency": "inconclusive [inhibitor, single point]"}, {"compound": "C[C@@H]1CN([C@H](C)CO)C(=O)CCCn2nncc2CO[C@@H]1CN(C)C(=O)c1ccccc1", "Potency": "inactive"}, {"compound": "Cc1cc(C)c(S(=O)(=O)N2CCN(S(=O)(=O)N3CCOCC3)CC2)c(C)c1", "Potency": "inactive"}, {"compound": "CCOC(=O)c1c(-c2ccccc2)csc1NC(=O)c1cc(S(=O)(=O)N2CCOCC2)ccc1C", "Potency": "inconclusive [inhibitor, single point]"}, {"compound": "Cc1c(NS(C)(=O)=O)cccc1-c1nc2cccnc2s1", "Potency": "inconclusive [inhibitor, single point]"}, {"compound": "O=C(NCCc1c[nH]c2ccccc12)/C(=C\\c1cccs1)NC(=O)c1ccccc1", "Potency": "inconclusive [inhibitor, single point]"}, {"compound": "Cc1ccc2c3c1C(=O)C(=O)N3C(C)(C)CC2C", "note": "(configuration not stated)", "Potency": "inconclusive [inhibitor, partial curve]"}, {"compound": "O=[N+]([O-])c1cccc(/C=C/c2ccccc2)c1", "Potency": "inactive"}, {"compound": "O=C(CSc1nc2ncccc2o1)Nc1cccc(C(F)(F)F)c1", "Potency": "inactive"}, {"compound": "CCN(CC)C(=O)[C@H]1CC(CC(=O)NCCC2=CCCCC2)C(=O)N2CCc3c([nH]c4ccc(OC)cc34)[C@]12C", "note": "(some centres not stated)", "Potency": "inconclusive [inhibitor, single point]"}, {"compound": "CCOC1=C2[C@@H](CN(S(=O)(=O)c3ccc(C)cc3)[C@H]2c2cccc3ccccc23)[C@H]2C(=O)N(CC)C(=O)[C@H]2C1", "Potency": "inconclusive [inhibitor, single point]"}, {"compound": "Cc1ccccc1OCC(=O)NCCc1nc2ccccc2[nH]1", "Potency": "inconclusive [inhibitor, single point]"}, {"compound": "c1ccc(CNc2nc(-c3ccc4c(c3)OCO4)nc3ccccc23)cc1", "Potency": "inconclusive [inhibitor, single point]"}, {"compound": "Cc1ccc(S(=O)(=O)N2CCN(C(=O)c3c(C)nn(-c4ccccc4)c3Cl)CC2)cc1", "Potency": "inconclusive [inhibitor, single point]"}, {"compound": "C/C(=N\\Nc1cccc(C(F)(F)F)c1)c1ccc(O)cc1", "Potency": "inactive"}, {"compound": "O=C(Cn1c(=O)n(-c2ccccc2)c(=O)c2ccc(C(=O)NCc3ccc4c(c3)OCO4)cc21)Nc1ccc(Br)cc1", "Potency": "inconclusive [inhibitor, single point]"}, {"compound": "Cc1ccc(C(=O)C[n+]2cccc3ccccc32)cc1", "Potency": "active: 18.4 µM"}, {"compound": "COc1ccc(OC)c(CNC(=O)c2ccc3c(c2)c(C)c(C)n3C)c1", "Potency": "inconclusive [inhibitor, single point]"}, {"compound": "COc1ccc(NC(=O)CCSc2ccc3ccccc3n2)cc1", "Potency": "inactive"}, {"compound": "Cc1ccc(OCCCCN2CCC(C)CC2)c(Br)c1", "Potency": "inconclusive [inhibitor, single point]"}, {"compound": "Cc1nc(SCC(=O)Nc2nsc(-c3ccc(C(C)(C)C)cc3)n2)c2c3c(sc2n1)CCCC3", "Potency": "inconclusive [inhibitor, single point]"}, {"compound": "CCOC(=O)N1CCN(C(=O)CSc2nc3ccccc3c(=O)n2-c2ccccc2)CC1", "Potency": "inconclusive [inhibitor, single point]"}, {"compound": "CC1=C(C(=O)Nc2cccc(C(=O)NC3CCCCC3C)c2)SCCO1", "note": "(configuration not stated)", "Potency": "inconclusive [inhibitor, single point]"}, {"compound": "CCOC(=O)CC(NC(=O)Cn1nnc(-c2ccccc2F)n1)c1ccc(OC)cc1", "note": "(configuration not stated)", "Potency": "inconclusive [inhibitor, single point]"}, {"compound": "Nc1ccc2ccccc2c1C(=O)c1ccccc1", "Potency": "inconclusive [inhibitor, full curve]"}, {"compound": "COc1ccc(N2CCN(S(=O)(=O)CCNC(=O)Cc3ccc(OC)c(OC)c3)CC2)cc1", "Potency": "inactive"}, {"compound": "OC1CCCN(Cc2ccc3c(c2)Cc2ccccc2-3)C1", "note": "(configuration not stated)", "Potency": "inconclusive [inhibitor, single point]"}, {"compound": "Cc1ccc(S(=O)(=O)N2C[C@@H]3[C@H]4CC[C@H](C4)[C@@H]3[C@@H](C)[C@H]2c2ccco2)cc1", "Potency": "active: 14.6 µM"}, {"compound": "Cc1ccc(NC(=O)C2CCCN2S(=O)(=O)c2ccc3c(c2)CCC(=O)N3)cc1Cl", "note": "(configuration not stated)", "Potency": "inconclusive [inhibitor, partial curve]"}, {"compound": "CC(=O)N1CC(C)Sc2ccc(S(=O)(=O)NCCc3ccccc3)cc21", "note": "(configuration not stated)", "Potency": "active: 10.3 µM"}, {"compound": "O=C(Nc1ccccn1)C1CCN(S(=O)(=O)c2ccc3c(c2)OCCO3)CC1", "Potency": "inactive"}, {"compound": "O=C(NCc1ccc(Cl)s1)c1cc(COc2c(F)cccc2F)on1", "Potency": "inconclusive [inhibitor, single point]"}, {"compound": "CN1OC[C@@H]2CN(C(=O)CCc3ccccc3)[C@H](c3cccc(N4CCOCC4)c3)C[C@@H]21", "Potency": "inactive"}, {"compound": "COc1cccc(C(=O)NCC2Cc3c(F)ccc(-c4ncccn4)c3O2)c1OC", "note": "(configuration not stated)", "Potency": "inconclusive [inhibitor, partial curve, poor fit]"}, {"compound": "Cc1sc2nc(COC(=O)c3ccc(O)cc3)[nH]c(=O)c2c1C", "Potency": "active: 18.4 µM"}, {"compound": "Cc1ccc(NC(=O)C2(C)CCN2Cc2cccc3c2OCO3)cc1O", "note": "(configuration not stated)", "Potency": "inconclusive [inhibitor, single point]"}, {"compound": "CCCC(C(=O)NCCC(C)C)N(Cc1ccc(F)cc1)C(=O)c1snc(C(N)=O)c1N", "note": "(configuration not stated)", "Potency": "inconclusive [inhibitor, single point]"}, {"compound": "CCN(C(=O)CSc1nc(-c2ccccc2)no1)c1ccccc1", "Potency": "inconclusive [inhibitor, single point]"}, {"compound": "CC(C)C[C@H](NC(=O)c1[nH]cnc1C(=O)N[C@@H](Cc1ccccc1)C(=O)OC(C)(C)C)C(=O)OC(C)(C)C", "Potency": "inconclusive [inhibitor, single point]"}, {"compound": "COC(=O)c1ccc(NC(=O)CCc2c(C)nc3c(c(C)nn3C(C)(C)C)c2C)cc1", "Potency": "active: 18.4 µM"}, {"compound": "COc1ccc(CNC(=O)[C@H](C)NC(=O)C2CCN(C(=O)[C@@H](N)CCSC)CC2)cc1", "Potency": "inactive"}, {"compound": "COc1ccc(OC)c(N(CC(=O)NC2CC3CCC2C3)S(=O)(=O)c2ccccc2)c1", "note": "(configuration not stated)", "Potency": "inconclusive [inhibitor, partial curve, poor fit]"}]}]}
